# Assay results: PubChem BioAssay AID651820 (National Center for Advancing Translational Sciences (NCATS), 2012)
# Values joined by “and” are separate entries in the source; they are usually repeats but may differ in a detail not shown here. Equal entries are not always repeated. The whole screen tested about 340,000 compounds, of which about 12,000 (3.5%) were called active. Inconclusive results, whose numbers are uncertain, are shown with a selection of clear calls. The call rests on the fitted dose curve; in most records, active means well fitted inhibition curve with a large enough effect; inconclusive means small, poorly fitted or top-dose-only effect, or another doubt; inactive means no such curve, though single readings can be large or run the other way. Where the call is inconclusive, the potency comes from a doubtful curve fit.
# Assay: qHTS Assay for Inhibitors of Hepatitis C Virus (HCV)
# Details: Huh7.5.1 HCVcc-Cre (HCVcc is cell-culture hepatitis C virus) infection, luciferase reporter, 44 h; series mostly up to 41.8 µM
# Summary of the method: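 A cell-based infection assay in which seeded cells (1,000 per well) receive test compound after 4 h, are inoculated with HCVcc-Cre at approximately 0.5 moi, and are incubated 44 h before luminescence detection.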
# Potency means the concentration at half of the fitted maximal effect; tags describe the fitted curve by direction and shape.
row,Compound,Potency
1,COc1ccc(OC)c(S(=O)(=O)N2CCC(C(=O)NCc3cccnc3)CC2)c1,inactive
2,CCOC(=O)c1c(-c2cccs2)csc1NC(=O)COC(=O)c1c(C)noc1C,"inconclusive: 2.24 µM [inhibitor, full curve]"
3,N=c1c2c(-c3ccccc3)c(-c3ccccc3)n(Cc3ccccc3)c2ncn1CCO,"inconclusive: 3.98 µM [inhibitor, full curve, poor fit]"
4,O=C(NCc1cccs1)c1cc(S(=O)(=O)N2CCOCC2)ccc1N1CCCC1,inactive
5,CCc1cccc2c(C(=O)COC(=O)c3ccccc3)c[nH]c12,"inconclusive: 3.55 µM [inhibitor, partial curve]"
6,Cc1ccc(C)c(N2CCN(C(=O)c3ccc(Cn4c(=S)[nH]c5ccc(N6CCOCC6)cc5c4=O)cc3)CC2)c1,"inconclusive: 3.55 µM [inhibitor, full curve]"
7,Cc1cc(NC(=O)CSc2nnc(NCc3ccccc3)s2)no1,"inconclusive: 3.98 µM [inhibitor, single point]"
8,O=[N+]([O-])c1ccc(-[n+]2ccc3ccccc3c2)c([N+](=O)[O-])c1,"inconclusive: 31.6 µM [inhibitor, single point]"
9,COc1ccccc1Nc1nc(N)nc(-c2cc3ccccc3o2)n1,"inconclusive: 31.6 µM [inhibitor, single point]"
10,Cc1ccc(C(=O)N/N=C/c2ccc(-c3cccc(Cl)c3)o2)cn1,"inconclusive: 12.6 µM [inhibitor, partial curve, poor fit]"
11,O=C(/C=C/c1ccco1)NC(=S)Nc1ccc(Cl)cn1,inactive
12,CC1CCCC(C)N1C(=O)COc1ccc(-c2nnco2)cc1 (configuration not stated),inactive
13,Cc1ccc(S(=O)(=O)N2CCC(C(=O)N3CCCC(C(F)(F)F)C3)CC2)cc1C (configuration not stated),"inconclusive: 31.6 µM [inhibitor, single point]"
14,O=C(NCCSCc1ccccc1)c1ccc(C2SCC(=O)N2Cc2ccccc2)cc1 (configuration not stated),"inconclusive: 31.6 µM [inhibitor, single point]"
15,COc1cc(NC(=S)N2CCC(C(O)(c3ccccc3)c3ccccc3)CC2)cc(OC)c1,"inconclusive: 22.4 µM [inhibitor, single point]"
16,CCN(CC)CC(O)COc1ccc2c(c1)c(C(C)=O)c(C)n2-c1ccccc1 (configuration not stated),"inconclusive: 31.6 µM [inhibitor, partial curve]"
17,CCn1nnc(-c2ccccc2NC(=O)C(F)(F)F)n1,"inconclusive: 4.47 µM [inhibitor, partial curve]"
18,CN(C(=O)CSc1nccc(=O)[nH]1)C1CCCCC1,inactive
19,COc1ccc(CC(=O)c2ccc(OC)c(OC)c2C)cc1OC,"inconclusive: 3.55 µM [inhibitor, full curve]"
20,CC(=O)Nc1ccc(S(=O)(=O)NC2CC(=O)N(c3cccc(F)c3)C2)cc1 (configuration not stated),"inconclusive: 35.5 µM [inhibitor, partial curve]"
21,CC(C)(C)N(CC#CCC1(O)c2ccccc2-c2ccccc21)CCO,inactive
22,O=C(CNc1ccccc1F)Nc1cc(S(=O)(=O)N2CCCCC2)ccc1Cl,"inconclusive: 31.6 µM [inhibitor, single point]"
23,N#CC1=C(N)Oc2cc(N)ccc2C1c1ccc(F)cc1 (configuration not stated),"inconclusive: 31.6 µM [inhibitor, single point]"

row,Compound,Potency
1,CN(Cc1ccccc1)c1ncnc2sccc12,active: 8.91 µM
2,CNc1nc(-c2ccc3c(c2)CCN3C(=O)c2ccccc2C)cs1,"inconclusive: 22.4 µM [inhibitor, single point]"
3,CCOC(=O)c1c(-n2c(C)cc(C=O)c2C)sc2c1CCCC2,"inconclusive: 31.6 µM [inhibitor, single point]"
4,CN1CCN(C(=O)CN(Cc2ccccc2)S(C)(=O)=O)CC1,"inconclusive: 20 µM [inhibitor, single point]"
5,O=C(NC(Cc1ccccc1)C(=O)N1CCCCC1)c1ccccc1 (configuration not stated),inactive
6,S=C(NCCSCc1c(Cl)cccc1Cl)Nc1ccccc1,"inconclusive: 8.91 µM [inhibitor, partial curve, poor fit]"
7,CCn1nc(C(=O)N2CCN(Cc3nc4ccccc4s3)CC2)c2ccccc2c1=O,"inconclusive: 12.6 µM [inhibitor, single point]"
8,COc1cccc(C(=O)NNC(=O)c2cccnc2)c1,inactive
9,COc1ccc(-n2nc(C(=O)NCC(=O)N3CCCCCC3)c3ccccc3c2=O)cc1OC,inactive
10,Cc1cc(C)nc(N2CCCC(C(=O)Nc3nc4ccc(S(C)(=O)=O)cc4s3)C2)n1 (configuration not stated),"inconclusive: 11.2 µM [inhibitor, single point] and inconclusive: 31.6 µM [inhibitor, single point]"
11,CCCCCCc1nc(C(N)=O)c2[nH]c(=O)n(-c3ccc(OC)cc3OC)c2n1,"inconclusive: 11.2 µM [inhibitor, single point]"
12,Cc1cc(C)nc(NC(=O)/C=C/c2ccc(Cl)cc2Cl)c1,"inconclusive: 11.2 µM [inhibitor, partial curve]"
13,CN(CC(=O)Nc1ccc(Cl)cc1)C(=O)CCC1CCCC1,inactive
14,CCN(C(=O)COc1cc(OC)ccc1C(C)=O)C1CCS(=O)(=O)C1 (configuration not stated),"inconclusive: 10 µM [inhibitor, partial curve, poor fit]"
15,O=C(O)COc1ccccc1/C=N/NC(=O)Cc1ccccc1,inactive
16,Cc1nc2ccccn2c1C(=O)N/N=C/c1cc(C)n(-c2ccc(Cl)cc2)c1C,"inconclusive: 22.4 µM [inhibitor, partial curve]"
17,O=C(Nc1ccc(Cl)cc1)Nc1nnc(CSc2ccc(Cl)cc2)s1,"inconclusive: 12.6 µM [inhibitor, single point]"
18,O=C(Nc1ccccc1C(F)(F)F)c1cc2ncc(CCCl)cn2n1,"inconclusive: 5.62 µM [inhibitor, single point]"
19,CCOC(=O)c1c(NC(=O)C2(C)Cc3ccccc3C(=O)O2)sc2c1CCCC2 (configuration not stated),"inconclusive: 11.2 µM [inhibitor, partial curve]"
20,CCOC(=O)N1CCc2cc(OC)c(OC)c3c2c1cc1cc(OC)c(OC)cc13,"inconclusive: 5.62 µM [inhibitor, full curve, poor fit]"
21,CC(C)NS(=O)(=O)c1ccc(Oc2ncc(C(F)(F)F)cc2Cl)cc1,"inconclusive: 3.16 µM [inhibitor, partial curve]"
22,O=C(CSc1c[nH]c2ccccc12)NCc1ccc2c(c1)OCO2,"inconclusive: 6.31 µM [inhibitor, partial curve]"
23,Cc1ccc(C(C)C)c(OCc2nn(CC(=O)c3ccc(Cl)cc3)c3[n+]2CCCCC3)c1,"inconclusive: 31.6 µM [inhibitor, single point]"

row,Compound,Potency
1,CC1Cc2cc(S(=O)(=O)NCc3ccccc3)ccc2N1C(=O)C1CCC1 (configuration not stated),"inconclusive: 14.1 µM [inhibitor, partial curve]"
2,CCN(CC)CCN(C(=O)c1ccc2ccccc2c1)c1nc2cc3c(cc2s1)OCO3,"inconclusive: 3.55 µM [inhibitor, partial curve]"
3,Cc1ccc(C(=O)Nc2ccc3c(c2)OCO3)cc1S(=O)(=O)N1CCOCC1,"inconclusive: 31.6 µM [inhibitor, single point]"
4,CN(C)N1C(=O)/C(=C/c2ccco2)SC1=Nc1ccccc1,"inconclusive: 10 µM [inhibitor, partial curve]"
5,O=C(CSc1ccc2ccccc2n1)NCCCN1CCCC1=O,inactive
6,CN(c1ccccc1)S(=O)(=O)c1cccc(NS(=O)(=O)c2cccc(C(=O)O)c2)c1,inactive
7,O=C(CN(C(=O)CNS(=O)(=O)c1ccccc1)c1ccc2c(c1)OCCO2)NC1CCCCC1,inactive
8,CC(C(=O)NC1CCCCC1)N(Cc1ccccc1)C(=O)c1snc(C(N)=O)c1N (configuration not stated),inactive
9,Cc1cccc(NC(=O)NNC(=O)c2cc(-c3ccccc3Cl)nc3ccccc23)c1,"inconclusive: 31.6 µM [inhibitor, single point]"
10,C/C(=N/Nc1nc(C)cc(C)n1)c1ccc(Br)cc1,"inconclusive: 15.8 µM [inhibitor, single point]"
11,COc1ccc2cc(C(=O)C3CCCN(C(=O)c4snnc4C)C3)ccc2c1 (configuration not stated),"inconclusive: 31.6 µM [inhibitor, single point]"
12,CC[C@H](C)C(=O)O[C@H]1CCC=C2C=C[C@H](C)[C@H](CC[C@@H]3C[C@@H](O)CC(=O)O3)[C@H]21,active: 0.562 µM
13,CCCCOC(=O)Cn1c(=O)c2c(nc3n2CCCCN3c2ccc(C)cc2)n(C)c1=O,"inconclusive: 31.6 µM [inhibitor, single point]"
14,O=C(Nc1ccnn1C1CCN(Cc2cccc(O)c2)CC1)C1CCCC1,inactive
15,O=C1C(Oc2ccccc2)C(c2cccs2)N1Cc1ccc2c(c1)OCO2 (configuration not stated),"inconclusive: 8.91 µM [inhibitor, partial curve, poor fit]"
16,CCOCCn1c(SCCCc2ccccc2)nc2c1c(=O)[nH]c(=O)n2C,"inconclusive: 31.6 µM [inhibitor, single point]"
17,CC1(C)OC(=O)C(=CNc2cccc(O)c2)C(=O)O1,inactive
18,O=C(CN(Cc1ccco1)C(=O)Cn1nnc(-c2ccc(F)cc2)n1)NC1CCCC1,inactive
19,Cn1c(=O)c(Nc2ccc(O)cc2)c2c3c(cccc31)C(=O)c1ccccc1-2,"inconclusive: 31.6 µM [inhibitor, single point]"
20,CC(Sc1ncn[nH]1)C(=O)Nc1cc(C(F)(F)F)ccc1Cl (configuration not stated),"inconclusive: 10 µM [inhibitor, partial curve]"
21,CC1(C)CC(=O)c2sc(NC(=O)CCS(=O)(=O)c3ccccc3)nc2C1,"inconclusive: 31.6 µM [inhibitor, single point]"
